Source: the supplement of paper PMC4604168 (melanoma cell lines)
This is one part of the list. Repeats are few or missing, and single values can be far off.

Tests used:
Experiment in all cases: cell count relative to DMSO control; melanoma cells; higher = more viable cells
Settings in all cases: library dose: standard library concentration; 72 h
[1] = test system: G361
[2] = test system: IPC-298
[3] = test system: IST-MEL1
[4] = test system: LB2518-MEL
[5] = test system: LOXIMVI
[6] = test system: MEL-HO
[7] = test system: MZ2-MEL
[8] = test system: MeWo
[9] = test system: RPMI7951
[10] = test system: RVH-421
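Further: cells treated in 1,536-well plates, then fixed and DAPI-stained, with nuclei counted from automated high-throughput microscope images.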

SMILES | cell count [1] [%] | cell count [2] [%] | cell count [3] [%] | cell count [4] [%] | cell count [5] [%] | cell count [6] [%] | cell count [7] [%] | cell count [8] [%] | cell count [9] [%] | cell count [10] [%]
Cc1cc(Nc2cc(N3CCN(C)CC3)nc(/C=C/c3ccccc3)n2)n[nH]1 + COc1cc2c(Oc3ccc4[nH]c(C)cc4c3F)ncnc2cc1OCCCN1CCCC1 [cediranib] (first compound 0.2 µM, partner dose 2 µM) | 100 | 109 | 104 | 89 | 63.4 | 111 | 103 | 76 | 66.1 | 73.7
COc1ccc(C2=N[C@@H](c3ccc(Cl)cc3)[C@@H](c3ccc(Cl)cc3)N2C(=O)N2CCNC(=O)C2)c(OC(C)C)c1 [Nutlin-3] + O=C(Nc1cccc(Cl)c1)Nc1ncc(CCNc2ncnc3ccsc23)s1 [SNS314] (first compound 0.5 µM, partner dose 0.004 µM) | 63.3 | 101 | 56.2 | 67.3 | 85 | 81 | 85.8 | 78.8 | 90.8 | 63.5
Cn1c(=O)n(-c2ccc(C(C)(C)C#N)cc2)c2c3cc(-c4cnc5ccccc5c4)ccc3ncc21 + COc1cc2ncnc(Nc3ccc(Oc4ccccc4)cc3)c2cc1OC [SrcI1] (first compound 0.02 µM, partner dose 10 µM) | 22.7 | 55.4 | 65.3 | 64.5 | 55.5 | 62.2 | 54.6 | 41.8 | 36.8 | 71.4
Cc1cn(-c2cc(NC(=O)c3ccc(C)c(Nc4nccc(-c5cccnc5)n4)c3)cc(C(F)(F)F)c2)cn1 [nilotinib] + CN1CCN(c2ccc3nc(-c4c(N)c5c(F)cccc5[nH]c4=O)[nH]c3c2)CC1 [Dovitinib] (first compound 1 µM, partner dose 0.5 µM) | 76.1 | 68.1 | 78.4 | 52.2 | 110 | 88.6 | 49.8 | 67.4 | 64.7 | 103
Cc1cn(-c2cc(NC(=O)c3ccc(C)c(Nc4nccc(-c5cccnc5)n4)c3)cc(C(F)(F)F)c2)cn1 [nilotinib] + C=CCn1c(=O)c2cnc(Nc3ccc(N4CCN(C)CC4)cc3)nc2n1-c1cccc(C(C)(C)O)n1 [MK1775] (first compound 1 µM, partner dose 0.1 µM) | 77.6 | 94.4 | 99.9 | 46.5 | 76.2 | 90.5 | 112 | 78.4 | 39.7 | 82
Cc1cc(Nc2cc(N3CCN(C)CC3)nc(/C=C/c3ccccc3)n2)n[nH]1 + CCc1ccc(CCOc2ccc(CC3SC(=O)NC3=O)cc2)nc1 [pioglitazone] (first compound 0.2 µM, partner dose 10 µM) | 89.8 | 87.7 | 90.3 | 82.4 | 85.9 | 83.2 | 85.8 | 67.2 | 73.9 | 93.6
COc1ccc(C2=N[C@@H](c3ccc(Cl)cc3)[C@@H](c3ccc(Cl)cc3)N2C(=O)N2CCNC(=O)C2)c(OC(C)C)c1 [Nutlin-3] + CCCCCCCCc1ccc(CCC(N)(CO)CO)cc1 [fingolimod] (first compound 0.5 µM, partner dose 10 µM) | 0.485 | 36.2 | 4.23 | 0.182 | 16.3 | 3.04 | 11.5 | 21.9 | 1.45 | 2.35
COc1ccc(C2=N[C@@H](c3ccc(Cl)cc3)[C@@H](c3ccc(Cl)cc3)N2C(=O)N2CCNC(=O)C2)c(OC(C)C)c1 [Nutlin-3] + C#Cc1cccc(Nc2ncnc3cc(OCCOC)c(OCCOC)cc23)c1 [erlotinib] (first compound 0.5 µM, partner dose 4 µM) | 55.5 | 65.6 | 94.9 | 54.1 | 80.4 | 85.2 | 82.3 | 75.6 | 84.1 | 62.8
COc1ccc(C2=N[C@@H](c3ccc(Cl)cc3)[C@@H](c3ccc(Cl)cc3)N2C(=O)N2CCNC(=O)C2)c(OC(C)C)c1 [Nutlin-3] + COc1cc(N2CCC(N3CCN(C)CC3)CC2)ccc1Nc1ncc(Cl)c(Nc2ccccc2S(=O)(=O)C(C)C)n1 [NVP-TAE684] (first compound 0.5 µM, partner dose 0.4 µM) | 73.4 | 95.8 | 84 | 87.4 | 79.6 | 85.2 | 85.7 | 67.6 | 86.7 | 63
Cc1cn(-c2cc(NC(=O)c3ccc(C)c(Nc4nccc(-c5cccnc5)n4)c3)cc(C(F)(F)F)c2)cn1 [nilotinib] + Cn1cc(/C=C2\C(=O)Nc3cccnc32)c2ccccc21 [GW441756] (first compound 1 µM, partner dose 2 µM) | 71.6 | 93 | 102 | 74.7 | 100 | 94.6 | 83.3 | 101 | 94.1 | 88.3
Cc1cc(Nc2cc(N3CCN(C)CC3)nc(/C=C/c3ccccc3)n2)n[nH]1 + C[C@]1(c2nc3c(C(N)=O)cccc3[nH]2)CCCN1 [Veliparib] (first compound 0.2 µM, partner dose 7 µM) | 92.3 | 93.5 | 108 | 70.6 | 77.2 | 105 | 98.1 | 82.7 | 102 | 90.9
Cc1cn(-c2cc(NC(=O)c3ccc(C)c(Nc4nccc(-c5cccnc5)n4)c3)cc(C(F)(F)F)c2)cn1 [nilotinib] + CC(=O)O[C@@]12CO[C@@H]1C[C@H](O)[C@@]1(C)C(=O)[C@H](O)C3=C(C)[C@@H](OC(=O)[C@H](O)[C@@H](NC(=O)OC(C)(C)C)c4ccccc4)C[C@@](O)([C@@H](OC(=O)c4ccccc4)[C@H]21)C3(C)C [Docetaxel] (first compound 1 µM, partner dose 0.0005 µM) | 12.6 | 34.3 | 41 | 35.3 | 72 | 38.7 | 41.3 | 26.6 | 18.5 | 53.9
CC(C)C[C@H](NC(=O)[C@H](Cc1ccccc1)NC(=O)c1cnccn1)B(O)O [Bortezomib] + O=c1cc(-c2cccc3c2Sc2ccccc2S3)oc(N2CCOCC2)c1 [KU55933] (first compound 0.005 µM, partner dose 5 µM) | 0.988 | 7.77 | 8.03 | 1.89 | 144 | 19.7 | 3.22 | 8.81 | 7.19 | 13.2
CC(C)C[C@H](NC(=O)[C@H](Cc1ccccc1)NC(=O)c1cnccn1)B(O)O [Bortezomib] + CN(NC(=O)CC(=O)NN(C)C(=S)c1ccccc1)C(=S)c1ccccc1 [STA4783] (first compound 0.005 µM, partner dose 0.03 µM) | 2.77 | 14.5 | 14.5 | 4.68 | 24.3 | 19.1 | 8.42 | 16.4 | 7.32 | 2.69
Cn1c(=O)n(-c2ccc(C(C)(C)C#N)cc2)c2c3cc(-c4cnc5ccccc5c4)ccc3ncc21 + O=C(O)c1ccc2c(c1)nc(Nc1cccc(Cl)c1)c1ccncc12 [CX4945] (first compound 0.02 µM, partner dose 2 µM) | 42.9 | 61.3 | 66.6 | 108 | 66.2 | 42.3 | 65.8 | 70.3 | 38.4 | 86.7
COc1ccc(C2=N[C@@H](c3ccc(Cl)cc3)[C@@H](c3ccc(Cl)cc3)N2C(=O)N2CCNC(=O)C2)c(OC(C)C)c1 [Nutlin-3] + C=CCNC1=C2C[C@@H](C)C[C@H](OC)[C@H](O)[C@@H](C)/C=C(\C)[C@H](OC(N)=O)[C@@H](OC)/C=C\C=C(/C)C(=O)NC(=CC1=O)C2=O [Tanespimycin] (first compound 0.5 µM, partner dose 0.01 µM) | 59.9 | 91.7 | 56.9 | 61.1 | 69.5 | 73.9 | 104 | 65.5 | 17.9 | 180
CC(C)C[C@H](NC(=O)[C@H](Cc1ccccc1)NC(=O)c1cnccn1)B(O)O [Bortezomib] + O=S(=O)(c1ccccc1)N(CC(F)(F)F)c1ccc(C(O)(C(F)(F)F)C(F)(F)F)cc1 [T0901317] (first compound 0.005 µM, partner dose 7 µM) | 1.27 | 4.39 | 9.73 | 1.53 | 212 | 22.2 | 3.32 | 9.16 | 7.85 | 11.6
Cc1cc(Nc2cc(N3CCN(C)CC3)nc(/C=C/c3ccccc3)n2)n[nH]1 + Nc1nc(F)nc2c1ncn2[C@@H]1O[C@H](CO)[C@@H](O)[C@@H]1O [fludarabine] (first compound 0.2 µM, partner dose 1 µM) | 74.3 | 67.3 | 66.1 | 69.8 | 113 | 73.9 | 90.2 | 87.8 | 46.9 | 76.9
CC(C)C[C@H](NC(=O)[C@H](Cc1ccccc1)NC(=O)c1cnccn1)B(O)O [Bortezomib] + N#Cc1c(O)c2c(-c3ccc(-c4ccccc4O)cc3)csc2[nH]c1=O [A769662] (first compound 0.005 µM, partner dose 10 µM) | 1.09 | 7.76 | 12.6 | 2.49 | 21.2 | 26.7 | 7.18 | 9.58 | 5.14 | 8.2
Cc1cn(-c2cc(NC(=O)c3ccc(C)c(Nc4nccc(-c5cccnc5)n4)c3)cc(C(F)(F)F)c2)cn1 [nilotinib] + O=C(O)c1ccc(-c2c[nH]c3ncc(-c4ccccc4)cc23)cc1C1CCCC1 [GSK650394] (first compound 1 µM, partner dose 0.8 µM) | 67.8 | 106 | 79.5 | 118 | 79.8 | 67 | 106 | 96.1 | 58.5 | 65.1
Cc1cn(-c2cc(NC(=O)c3ccc(C)c(Nc4nccc(-c5cccnc5)n4)c3)cc(C(F)(F)F)c2)cn1 [nilotinib] + NCC(=O)Nc1ccc(-n2nc(C(F)(F)F)cc2-c2ccc3c(ccc4ccccc43)c2)cc1 [OSU03012] (first compound 1 µM, partner dose 5 µM) | 54.5 | 48.8 | 62.7 | 62.1 | 70.2 | 75.7 | 73.3 | 56.1 | 50.3 | 48.9
